PubChem BioAssay (NCATS)
The shares of active, inactive and inconclusive entries below differ from those in the screen. A call without a number means that no potency is given here. The source made the active and inactive calls. Unless noted, calls follow the shape of the dose curve; as a rule, active = well fitted curve in the direction sought with a large enough effect; inconclusive = small, poorly fitted or top-dose-only effect, or another doubt; inactive = no such curve, though single readings can be large; an effect the other way counts as inactive or inconclusive.

Columns and labels:
[1] = Cell Viability - Jurkat (AID 426;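 active = dose-dependent loss of cell ATP signal giving a full or clear fitted curve, ranked by lower potency value; inconclusive = weak partial curve or response only at the top dose; inactive = no loss of viability signal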; also: potency is read from the fitted curve at half-maximal effect); conditions: qHTS
Method in brief: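 Jurkat (Clone E6-1) cells, 5000/well in complete medium, exposed to compounds for 40 hr at 37C; intracellular ATP measured by CellTiter-Glo luminescence after 20 min at room temperature. AC50 from Hill fits.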

[2] = Cell Viability - LYMP2-009 (AID 968); conditions: LYMP2-009 lymphoblastoid cell viability; series mostly up to 92.2 µM;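 also: cells exposed to compound for 24 h at 37 °C; nearly all actives have a fitted effect of over 55% in size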
[3] = Cell Viability - LYMP2-019 (AID 973); conditions: LYMP2-019 lymphoblastoid cell line viability; series mostly up to 92.2 µM;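 also: cells exposed to compound for 24 h at 37 °C; nearly all actives have a fitted effect of over 55% in size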
Method in brief: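 Human lymphoblastoid LYMP2-019 cells (2500/well) preincubated 5 h at 37 C, then treated 24 h at 37 C in complete medium. Viability by CellTiter-Glo ATP luminescence after 30 min at room temperature; AC50 from Hill fits.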

[4] = Cell Viability - LYMP2-023 (AID 975); conditions: LYMP2-023 lymphoblastoid cell viability; series mostly up to 92.2 µM;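 also: cellular ATP measured by luciferase luminescence as viability proxy; cells exposed to compound for 24 hours at 37 °C; nearly all actives have a fitted effect of over 55% in size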
Method in brief: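 LYMP2-023 human lymphoblastoid cells, 2500/well, preincubated 5 hr at 37 C, then compound-treated 24 hr at 37 C in complete medium. CellTiter-Glo luminescence (ATP) after 30 min at room temperature; AC50 from Hill-equation fits; tetraoctylammonium bromide positive control.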

[5] = target: Estrogen receptor (Homo sapiens) (UniProt P03372); experiment: qHTS assay for small molecule antagonists of estrogen receptor alpha signaling (AID 588513; active = well fitted curve in the direction sought with a large enough effect in the signal ratio, with a control signal flat, not every such curve was filed as active; inconclusive = small, poorly fitted or top-dose-only effect, or effect the other way, or a change in a side signal; inactive = no such curve, though single readings can be large or run the other way; the % refers to the signal ratio); conditions: ER-alpha-UAS-bla HEK293, beta-lactamase ratio, antagonist mode; activity, negative = inhibition: at 76.9 µM (top of the series) unless noted
Method in brief: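 Antagonist mode: inhibition of 0.5 nM 17-beta-estradiol-driven beta-lactamase reporter in HEK 293 ER-alpha-UAS-bla cells, 18 h at 37C, CCF4 readout after 2 h at RT. Normalised to estradiol and DMSO; titration fitted to Hill.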

[6] = target: Retinoic acid receptor RXR-alpha (Homo sapiens) (UniProt P19793); experiment: qHTS assay for small molecule agonists of retinoid X receptor alpha signaling (AID 588544; calls by dose curve); conditions: HEK293T RXRa-UAS-bla, beta-lactamase reporter, 18 h; activation: at 76.7 µM (top of the series) unless noted
[7] = qHTS assay for small molecule agonists of the antioxidant response element (ARE) signaling pathway (AID 651741; active = well fitted activation curve with a large enough effect in the signal ratio; inconclusive = small, poorly fitted or top-dose-only effect, or effect the other way, or a change in a side signal; the % refers to the signal ratio); conditions: HepG2 ARE-bla reporter, beta-lactamase FRET ratio, 16 h; activation: at 96 µM (top of the series) unless noted
Method in brief: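 CellSensor ARE-bla HepG2 cells (2,000/well) carrying ARE-driven beta-lactamase, exposed 16 h at 37 C. LiveBLAzer B/G FRET substrate added for 2 h at room temperature; fluorescence intensity read.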

[8] = qHTS assay to identify small molecules that stimulate interleukin-8 (IL-8) secretion (AID 651758; active = well fitted activation curve with a large enough effect in the signal ratio; inconclusive = small, poorly fitted or top-dose-only effect, or effect the other way, or a change in a side signal; the % refers to the signal ratio); conditions: HTRF ratio (665/615); activation: at 92.2 µM (top of the series)
Method in brief: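 THP-1 cells (2000/well) exposed to compound 16 h at 37 C; secreted IL-8 then detected by HTRF with cryptate- and XL665-labelled anti-IL-8 antibody pair after 1-3 h at room temperature.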

[9] = qHTS assay for small molecule antagonists of the retinoid-related orphan receptor gamma (ROR-gamma) signaling pathway - cell viability counter screen (AID 720652; active = well fitted curve in the direction sought with a large enough effect in the repeat runs; inconclusive = weak or mixed curves; inactive = no such curve, though single readings can be large; an effect the other way counts as inactive or inconclusive;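 also: CHO reporter cells with doxycycline-induced ROR-gamma expression; compound exposure lasted 16 hr before ATP read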); conditions: RORgamma reporter cell line viability counter screen; series mostly up to 92.2 µM
Method in brief: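 CHO cells carrying TET-inducible ROR and RORE-luciferase reporter, plated 5 hr, then dosed with compound plus doxycycline. After 16 hr at 37 C, viability read as intracellular ATP by CellTiter-Glo luminescence.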

[10] = Cell Viability - NIH 3T3 (AID 541); conditions: NIH 3T3 cell viability, qHTS; activity change, negative = cytotoxicity: at 92.2 µM (top of the series); also: nearly all actives have a fitted effect of over 25% in size
Method in brief: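 Mouse NIH 3T3 fibroblasts, 1000 cells/well, rested 5 hr at 37 °C, then exposed to compound for 40 hr at 37 °C in complete medium. Viability read as intracellular ATP by CellTiter-Glo luminescence; AC50 from Hill-equation fits of concentration-response data.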

[11] = MultiTox-Fluor Cytotoxicity Assay - LYMP1-003 - Live Cells (AID 962); conditions: LYMP1-003 lymphoblastoid cells, MultiTox-Fluor live-cell protease fluorescence; series mostly up to 92.2 µM;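 also: cytotoxic hits lower the live-cell protease signal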
Method in brief: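 LYMP1-003 lymphoblastoid cells, 2500/well in complete medium, treated 16 h at 37 C; live-cell protease cleavage of GF-AFC read by fluorescence (Ex/Em 405/510) after 60 min reagent; AC50 from Hill fits of concentration-response.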

[12] = target: Androgen receptor (Homo sapiens) (UniProt P10275); experiment: qHTS assay for small molecule antagonists of androgen receptor signaling (AID 588516; active = well fitted curve in the direction sought with a large enough effect in the signal ratio, with a control signal flat, not every such curve was filed as active; inconclusive = small, poorly fitted or top-dose-only effect, or effect the other way, or a change in a side signal; inactive = no such curve, though single readings can be large or run the other way; the % refers to the signal ratio); conditions: AR-UAS-bla HEK293, beta-lactamase ratio, antagonist mode, 16 h; activity change, negative = inhibition: at 76.8 µM (top of the series)
Method in brief: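 Antagonist mode: inhibition of R1881-stimulated (10 nM final) bla reporter in GeneBLAzer AR HEK 293 cells, 16 h at 37C, compounds titrated. IC50 and efficacy from Hill-equation fits of 405/460–530 nm FRET ratios.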

[13] = target: Glucocorticoid receptor (Homo sapiens) (UniProt P04150); experiment: qHTS assay for small molecule antagonists of glucocorticoid receptor signaling (AID 588533; active = well fitted inhibition curve with a large enough effect in the signal ratio, with a control signal flat, not every such curve was filed as active; inconclusive = small, poorly fitted or top-dose-only effect, or effect the other way, or a change in a side signal; the % refers to the signal ratio;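 also: cells stimulated with 2 nM dexamethasone as agonist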); conditions: HeLa MMTV-bla, GRE beta-lactamase ratio, antagonist mode, 18 h; activity change, negative = inhibition: at 76.8 µM (top of the series)
[14] = target: Thyroid hormone receptor beta (Homo sapiens) (UniProt P10828); experiment: qHTS assay for small molecule agonists of thyroid hormone receptor beta signaling (AID 588545; calls by dose curve); conditions: TR-UAS-bla GripTite HEK 293, beta-lactamase ratio, agonist mode, 18 h; activation: at 76.7 µM, percent of T3 response, DMSO as zero
Method in brief: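 Stimulation of a TR-driven beta-lactamase reporter was quantified in GripTite HEK 293 cells. Compound series ran for 18 hrs; curves were normalized to T3 and DMSO controls and fitted to yield EC50.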

[15] = qHTS assay for cell viability of HEK293 cells (AID 743288); conditions: ATP luminescence (CellTiter-Glo), 18 h; max response: stronger effect = lower value; also: nearly all actives have a fitted effect of over 50% in size
Method in brief: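 Total intracellular ATP, measured with a luciferase-coupled reagent, indicates the number of viable HEK293 cells. Exposure to test chemicals lasts 18 h at 37 C in 1,536-well format at 2,000 cells/well.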

Chain of UniProt P03372 (P03372 whole entry, looked up): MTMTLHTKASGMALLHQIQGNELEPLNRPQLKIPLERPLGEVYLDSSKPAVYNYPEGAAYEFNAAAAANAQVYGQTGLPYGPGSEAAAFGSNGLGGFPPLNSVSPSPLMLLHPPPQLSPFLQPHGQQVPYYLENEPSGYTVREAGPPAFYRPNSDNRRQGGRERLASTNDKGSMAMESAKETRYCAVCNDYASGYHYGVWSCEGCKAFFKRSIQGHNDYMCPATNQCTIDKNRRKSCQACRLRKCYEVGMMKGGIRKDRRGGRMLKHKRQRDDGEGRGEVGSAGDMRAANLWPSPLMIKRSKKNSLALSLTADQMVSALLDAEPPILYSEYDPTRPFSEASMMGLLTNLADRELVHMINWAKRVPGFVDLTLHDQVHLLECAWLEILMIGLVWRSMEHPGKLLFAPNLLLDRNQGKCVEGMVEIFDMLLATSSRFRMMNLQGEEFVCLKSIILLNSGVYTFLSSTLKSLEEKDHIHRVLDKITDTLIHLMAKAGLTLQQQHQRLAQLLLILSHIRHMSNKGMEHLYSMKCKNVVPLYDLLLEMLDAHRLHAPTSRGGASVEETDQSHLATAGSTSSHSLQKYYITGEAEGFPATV
Chain of UniProt P10828 (P10828 whole entry, looked up): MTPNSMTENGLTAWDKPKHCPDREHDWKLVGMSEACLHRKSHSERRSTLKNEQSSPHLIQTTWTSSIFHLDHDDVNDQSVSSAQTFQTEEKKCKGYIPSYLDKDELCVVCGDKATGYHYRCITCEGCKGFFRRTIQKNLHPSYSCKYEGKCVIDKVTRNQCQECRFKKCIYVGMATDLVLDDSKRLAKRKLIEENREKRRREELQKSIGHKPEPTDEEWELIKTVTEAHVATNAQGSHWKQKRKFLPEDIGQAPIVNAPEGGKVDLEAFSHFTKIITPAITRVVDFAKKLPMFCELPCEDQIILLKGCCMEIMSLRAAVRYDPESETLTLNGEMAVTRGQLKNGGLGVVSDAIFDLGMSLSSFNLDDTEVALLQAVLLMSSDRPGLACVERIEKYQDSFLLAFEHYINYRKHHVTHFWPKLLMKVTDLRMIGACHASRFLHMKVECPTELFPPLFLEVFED
Chain of UniProt P19793 (P19793 whole entry, looked up): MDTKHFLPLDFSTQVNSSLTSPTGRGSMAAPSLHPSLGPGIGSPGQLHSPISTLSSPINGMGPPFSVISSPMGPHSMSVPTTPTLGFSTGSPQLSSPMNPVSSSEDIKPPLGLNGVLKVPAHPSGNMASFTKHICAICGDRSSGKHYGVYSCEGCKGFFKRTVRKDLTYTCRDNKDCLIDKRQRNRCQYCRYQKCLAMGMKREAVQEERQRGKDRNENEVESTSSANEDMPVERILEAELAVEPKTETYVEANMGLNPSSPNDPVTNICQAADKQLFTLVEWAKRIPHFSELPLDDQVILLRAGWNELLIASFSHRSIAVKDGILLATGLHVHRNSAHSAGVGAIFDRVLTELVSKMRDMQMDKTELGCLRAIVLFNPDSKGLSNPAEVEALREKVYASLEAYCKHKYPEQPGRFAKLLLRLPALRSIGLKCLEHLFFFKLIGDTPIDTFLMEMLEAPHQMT
Chain of UniProt P04150 (P04150 whole entry, looked up): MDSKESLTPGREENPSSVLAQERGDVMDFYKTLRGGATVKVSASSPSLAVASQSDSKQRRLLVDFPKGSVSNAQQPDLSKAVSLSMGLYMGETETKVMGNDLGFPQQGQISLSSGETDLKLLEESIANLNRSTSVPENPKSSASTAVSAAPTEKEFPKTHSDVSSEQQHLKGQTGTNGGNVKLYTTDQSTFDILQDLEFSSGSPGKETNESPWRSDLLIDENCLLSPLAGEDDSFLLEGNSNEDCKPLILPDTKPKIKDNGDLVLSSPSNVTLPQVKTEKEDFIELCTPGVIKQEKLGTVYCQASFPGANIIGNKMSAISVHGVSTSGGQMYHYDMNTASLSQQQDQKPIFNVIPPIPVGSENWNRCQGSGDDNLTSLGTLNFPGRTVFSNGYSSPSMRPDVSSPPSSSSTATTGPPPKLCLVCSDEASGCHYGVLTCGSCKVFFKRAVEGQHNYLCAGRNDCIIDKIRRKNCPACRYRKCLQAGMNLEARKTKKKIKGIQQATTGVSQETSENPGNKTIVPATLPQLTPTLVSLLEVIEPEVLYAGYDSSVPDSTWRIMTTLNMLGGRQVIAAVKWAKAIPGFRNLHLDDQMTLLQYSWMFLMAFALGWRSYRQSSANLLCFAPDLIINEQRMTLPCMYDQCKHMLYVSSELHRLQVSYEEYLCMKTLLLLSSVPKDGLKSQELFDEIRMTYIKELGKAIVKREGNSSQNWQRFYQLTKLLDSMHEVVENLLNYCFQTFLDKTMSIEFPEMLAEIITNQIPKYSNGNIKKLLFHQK
Chain of UniProt P10275 (P10275 whole entry, looked up): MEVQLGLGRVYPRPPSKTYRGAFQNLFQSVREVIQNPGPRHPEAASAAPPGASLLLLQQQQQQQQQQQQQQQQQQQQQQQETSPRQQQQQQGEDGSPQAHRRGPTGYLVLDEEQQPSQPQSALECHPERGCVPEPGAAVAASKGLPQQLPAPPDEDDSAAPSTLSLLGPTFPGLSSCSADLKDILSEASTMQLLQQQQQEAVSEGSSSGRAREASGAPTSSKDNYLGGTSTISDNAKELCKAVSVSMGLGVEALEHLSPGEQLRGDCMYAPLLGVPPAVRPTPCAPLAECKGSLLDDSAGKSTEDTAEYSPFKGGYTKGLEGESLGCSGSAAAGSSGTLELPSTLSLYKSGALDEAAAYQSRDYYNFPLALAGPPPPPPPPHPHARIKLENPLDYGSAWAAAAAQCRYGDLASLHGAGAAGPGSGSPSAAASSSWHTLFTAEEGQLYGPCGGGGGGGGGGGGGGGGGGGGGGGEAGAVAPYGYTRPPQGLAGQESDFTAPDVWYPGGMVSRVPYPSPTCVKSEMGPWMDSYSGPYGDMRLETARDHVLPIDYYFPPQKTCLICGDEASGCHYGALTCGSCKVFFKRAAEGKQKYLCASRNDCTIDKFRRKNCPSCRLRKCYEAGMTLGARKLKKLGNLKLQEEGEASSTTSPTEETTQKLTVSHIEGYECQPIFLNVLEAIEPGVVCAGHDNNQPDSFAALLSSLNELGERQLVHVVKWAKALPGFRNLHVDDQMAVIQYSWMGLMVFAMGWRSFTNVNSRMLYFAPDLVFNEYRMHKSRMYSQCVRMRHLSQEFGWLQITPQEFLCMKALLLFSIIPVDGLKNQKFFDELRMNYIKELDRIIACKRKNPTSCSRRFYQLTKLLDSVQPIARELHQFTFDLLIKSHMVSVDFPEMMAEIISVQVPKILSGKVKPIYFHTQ

Which Potency [1] does the source give for CC(C)CO here?
The Potency was inactive: > 92 µM.

And the Potency [2]?
Its Potency is “inactive”.

And the Potency [3]?
The Potency was “inactive”.

And the Potency [4]?
The Potency was “inactive”.

And the Potency [5]?
The Potency was “inactive”.

What about the Potency [6] of the same compound?
Its Potency is “inactive”.

What about the activation [7] of the same compound?
The activation was inconclusive: 4.98%.

What about the activation [8] of the same compound?
Its activation is inconclusive: 19.2%.

And the Potency [9]?
Its Potency is “inactive”.

For COc1ccc(C)cc1N, which Potency [1] is on record?
Its Potency is inactive: > 92 µM.

What about the activity change, negative = cytotoxicity [10] of the same compound?
The activity change, negative = cytotoxicity was inconclusive: -31.1%.

What about the Potency [11] of the same compound?
Its Potency is “inactive”.

What about the Potency [5] of the same compound?
Its Potency is “inactive”.

And the activity change, negative = inhibition [12]?
The activity change, negative = inhibition was inconclusive: 69.2%.

And the Potency [13]?
The Potency was “inactive”.

And the activation [14]?
Its activation is inconclusive: -37.5%.

And the activation [8]?
The activation was inconclusive: 10.8%.

And the max response [15]?
The max response was inactive: -15%.
